Experimental data as given in PMC4336329 (PLoS ONE, 2015).
The campaign covered roughly 310,000 compounds. About 2,200 (0.71%) showed an effect of 50% or more. Effects have a minus sign here. The list shows a part of the results. Where a SMILES comes first, the peptide text is derived from it. The star is where a group is joined. Cbz = O=C(OCc1ccccc1)*

The compounds below were run against human ether-à-go-go-related gene (hERG) potassium channel (human, UniProt Q12809) (assay: primary screen, population patch clamp on CHO cells stably expressing hERG).
Sequence of human ether-à-go-go-related gene (hERG) potassium channel (Q12809 whole entry, looked up): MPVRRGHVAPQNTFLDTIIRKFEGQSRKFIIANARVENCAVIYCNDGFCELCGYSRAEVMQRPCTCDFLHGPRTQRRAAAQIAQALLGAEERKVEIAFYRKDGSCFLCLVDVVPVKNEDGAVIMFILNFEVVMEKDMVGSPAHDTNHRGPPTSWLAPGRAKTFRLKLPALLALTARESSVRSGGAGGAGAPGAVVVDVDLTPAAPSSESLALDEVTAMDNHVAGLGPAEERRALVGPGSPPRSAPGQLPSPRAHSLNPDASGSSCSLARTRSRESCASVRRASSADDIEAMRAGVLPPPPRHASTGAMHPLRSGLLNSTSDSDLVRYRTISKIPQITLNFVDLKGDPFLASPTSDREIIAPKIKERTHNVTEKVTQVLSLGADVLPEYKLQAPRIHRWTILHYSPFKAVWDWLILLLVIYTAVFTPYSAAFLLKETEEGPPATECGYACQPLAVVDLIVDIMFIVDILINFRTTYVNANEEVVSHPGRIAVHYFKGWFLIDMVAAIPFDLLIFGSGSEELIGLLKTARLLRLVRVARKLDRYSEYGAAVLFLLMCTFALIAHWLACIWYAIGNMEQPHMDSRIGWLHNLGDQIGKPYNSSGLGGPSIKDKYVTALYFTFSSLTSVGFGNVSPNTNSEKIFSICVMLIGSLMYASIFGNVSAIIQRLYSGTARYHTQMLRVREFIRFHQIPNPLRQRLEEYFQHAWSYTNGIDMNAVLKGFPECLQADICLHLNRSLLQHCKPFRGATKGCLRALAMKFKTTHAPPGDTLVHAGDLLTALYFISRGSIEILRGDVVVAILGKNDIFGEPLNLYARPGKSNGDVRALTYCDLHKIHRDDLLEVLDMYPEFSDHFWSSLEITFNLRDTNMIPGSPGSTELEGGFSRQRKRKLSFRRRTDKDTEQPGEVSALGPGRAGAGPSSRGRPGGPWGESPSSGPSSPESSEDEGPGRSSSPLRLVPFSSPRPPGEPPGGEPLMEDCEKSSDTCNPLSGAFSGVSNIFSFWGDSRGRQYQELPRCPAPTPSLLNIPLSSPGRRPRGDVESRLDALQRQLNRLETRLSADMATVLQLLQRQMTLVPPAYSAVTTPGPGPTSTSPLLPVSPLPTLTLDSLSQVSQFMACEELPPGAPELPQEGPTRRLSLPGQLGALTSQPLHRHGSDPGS

Structure (SMILES) | hERG current change (%, negative = inhibition) at 1uM [%]
CC(=O)Oc1ccc(/C=N/NC(=S)Nc2ccccc2)cc1 | 5.9
N#C/C=C/N1CCN(C(=O)c2ccco2)CC1 | 17.3
Cc1cc(C(=O)N2CCN(S(C)(=O)=O)CC2)cs1 | 7.65
COc1ccc(Cl)cc1S(=O)(=O)Nc1ccc2c(c1)n(C)c(=O)n2C | 2.77
Oc1ccccc1-c1nc(NC2CCCC2)c2ccccc2n1 | 17.9
S=c1[nH]nc(COc2cccc(Cl)c2)n1Cc1ccccc1 | 5.1
CCOc1ccc(C(=O)NC(=S)Nc2ccc(NC(=O)CC)cc2)cc1[N+](=O)[O-] | 11.5
COC(=O)C1(C(=O)OC)Sc2ccccc2C1=O | 9.5
Br.CCCN(CCC)[C@@H]1CCc2cccc(O)c2C1 | -16.9
O=C(NC1CCCCC1)c1cc([N+](=O)[O-])ccc1N1CCOCC1 | -9.36
Oc1ccc(/C=N/NP(=S)(c2ccccc2)c2ccccc2)cc1 | 1.62
CCCC(=O)Nc1cc(C(=O)O)ccc1Sc1ccccc1 | 12.9
COc1cc(/C=C/C(=O)O)cc(OC)c1O | 6.39
COCCn1c(CCC(=O)O)ccc1-c1cccs1 | 12.8
CC(C)CC(NC(=O)C1CCCN1C(=O)CNC(=O)OCc1ccccc1)C(=O)O (stereo not drawn) (Cbz-Gly-Pro-Leu-OH; configuration not given here) | 15.8
CCN(CC(=O)NCc1ccc(Cl)cc1)C(=O)c1cc2ccccc2o1 | -0.872
CN(C1CCCCC1)S(=O)(=O)c1ccc(NC(=S)NC(=O)c2cccs2)cc1 | 9.74
Cc1ccc(Cl)cc1NC(=O)[C@@H]1CCC(=O)N1C1OC(=O)c2ccccc21 (some centres unmarked) | 12
O=C(CN(Cc1ccco1)C(=O)c1cccc(Cl)c1)Nc1c(Cl)cc(Cl)cc1Cl | 11.6
O=C(COc1ccccc1)N1CCc2ccccc21 | 9.89
CCOC(=O)c1ccc(N=Cc2nc3ccccc3n2C)cc1 | 11.2
CC(C)CC(=O)N(c1nnc(-c2cccnc2)s1)C1CCCC1 | 8.22
COc1cccc(C(=O)NCCS(=O)(=O)N2CCOCC2)c1 | 4.76

Structure (SMILES) | hERG current change (%, negative = inhibition) at 1uM [%]
Cc1ccc(NC(=O)CC(=O)Nc2ccc(C)c(C)c2)cc1C | 12
CC(C)CCN(C)C1CCN(S(=O)(=O)c2cccc(C(F)(F)F)c2)CC1.Cl | -10.4
CCOc1ccc(CCN2CN(CC)CNC2=S)cc1OCC | 11.5
COc1ccccc1NC(=O)CSc1nnc(CCNC(=O)c2ccc(C)cc2)n1C | 12.3
COc1ccccc1NC(=O)CCCNC(=O)Cn1cnc2sc(C)c(C)c2c1=O | 12.6
Cc1cccc(C(=O)NC2CCN(C(=O)NCc3ccccc3)CC2)c1 | 4.35
Cc1ccccc1OCC(=O)NNC(=O)c1ccc2c(=O)n3c(nc2c1)CCC3 | 7.04
N#Cc1ccc(OCC(=O)Nc2nc(-c3cccnc3)cs2)cc1 | 11.2
CC1=CC2=NC(=O)/C(=C\c3cccn3CCOc3ccccc3)C(=N)N2O1 | 11.4
CC(=O)Nc1ccc(C(=O)N/N=C(\C)CC(=O)Nc2ccc(OCc3ccccc3)cc2)cc1 | 18.8
CCOc1ccc(/C=C/C(=O)Oc2ccc(OC)cc2)cc1 | 12.3
CC(C)(C)Cc1nnc(NS(=O)(=O)Cc2ccccc2)s1 | 6.37
CCCCOn1c(C)c(C(C)=O)c2c3no[n+]([O-])c3ccc21 | -9.31
C=CCC1(C#N)C(SC)=NC2=C(C(=O)CC(C)(C)C2)C1c1ccc(Br)cc1 (centres unmarked) | 9.38
CCOC(=O)C1CCCN(Cc2cc(=O)oc3cc(C)c(C)cc23)C1 (centres unmarked) | 9.9
Cc1ccc(-c2nc(CNC(=O)c3cc(C)on3)cs2)cc1 | 17.9
COC(=O)c1ccc(Oc2ccc(C(F)(F)F)cn2)cc1 | 11.9
CNC(=O)COC(=O)c1ccccc1Nc1ccccc1 | 3.47
O=C(O)CCCn1cc(NC(=O)COc2ccccc2)cn1 | 8.62
CCCCNC(=O)/C=C/c1cccs1 | 24.3
Cc1noc(C)c1CSc1nc2ccccc2s1 | 5.56
COc1ccc(NC(=O)CSc2nnc(Cc3cccs3)n2-c2ccc(C)cc2)cc1 | -8.63
O=C(Nc1ccc(N2CCN(C(=O)c3cccs3)CC2)cc1)c1ccc([N+](=O)[O-])o1 | -15.8

Structure (SMILES) | hERG current change (%, negative = inhibition) at 1uM [%]
COc1ccc(OC)c(NC(=O)CCNS(=O)(=O)c2ccc3[nH]c(=O)oc3c2)c1 | 11.3
Cn1c(SCC(=O)NCCc2ccccc2)nnc1-c1ccco1 | 6.51
Cc1nc2ccccc2c(=O)n1NC(=O)C1CCC(C(C)(C)C)CC1 (centres unmarked) | 10.4
COc1ccc(NC(=O)C2CCN(S(=O)(=O)c3ccc(C)cc3)CC2)cc1OC | -20
CCOc1ccc(CCNC(=O)C2CCCN(S(C)(=O)=O)C2)cc1OCC (centres unmarked) | 10.9
O=C(c1ccc2c(c1)OCO2)C1CCCN(CC2CCCCC2)C1 (centres unmarked) | -44.2
O=C(c1cccc(C(F)(F)F)c1)C1CCCN(C(=O)CN2CCOC2=O)C1 (centres unmarked) | 8.48
CCOC(=O)C1(C)C=C(Nc2ccc(C)cc2)C(=O)N1c1ccc(C)cc1 (centres unmarked) | 11.1
C=CCn1c(C)cc(C(=O)CSc2nc3ccccc3o2)c1C | 21.2
COc1cccc(SCC2(O)CCN(C(=O)c3ccc(Cl)cc3)CC2)c1 | -7.75
COc1ccc(NC(=O)C23CC4CC(C2)CC(n2cnc(Br)n2)(C4)C3)cc1OC | 13.4
CCOc1ccc(CNCc2ccc(C(=O)O)cc2)cc1OC.Cl | 5.44
O=C(c1ccc(NS(=O)(=O)c2ccc3c(c2)OCCO3)cc1)N1CCCCC1 | 3.87
CCc1ccc(OCc2ccc(C(=O)OC)o2)cc1 | 22.1
COc1ccc(NC(=O)CCSc2nnc(C)s2)cc1 | 27.4
COC(=O)CCCC1=CC2=CC(=O)C(C)(OC(=O)c3cccs3)C(=O)C2=CO1 (centres unmarked) | 11
CC(NC(=O)NC1CCCCC1)C(c1cccs1)N1CCN(c2ccccc2)CC1 (centres unmarked) | -2.77
C=CCNCCCCOc1ccc(C)cc1[N+](=O)[O-] | -7.79
CC(C)CCN1C(Nc2ccccc2)=NC[C@@H]1C | 0.156
Cc1cc(C)nc(/N=C(\N)Nc2cccc([N+](=O)[O-])c2)n1 | -2.85
COc1ccccc1N(C)S(=O)(=O)c1ccc(C(=O)Nc2nc(C)c(C(C)=O)s2)cc1 | 6.66
CCCNC(=O)/C=C/c1ccc(C(C)C)cc1 | 4.97
CC1CCN(C(=O)CCNS(=O)(=O)c2ccccc2)CC1 | 5.23

Structure (SMILES) | hERG current change (%, negative = inhibition) at 1uM [%]
N=C1/C(=C\c2ccc(-c3cccc(C(=O)O)c3)o2)C(=O)N=C2SC=C(c3ccccc3)N12 | 5.77
C=CCn1c(SCc2nc3ccccc3c(=O)[nH]2)nc2scc(C3CC3)c2c1=O | 6.31
CCCCN1CC(=O)N2[C@H]3c4cc(Cl)ccc4OC[C@@H]3[C@H](c3ccccc3)[C@]2(C)C1=O | 13.1
Cc1ccc(S(=O)(=O)Nc2cccc(C(=O)NCC3(N4CCCCC4)CCCCC3)c2)cc1F | -76.4
COCCn1cc(C(=O)N2CCC(C)CC2)c2c3ccccc3n(C)c2c1=O | -3.88
Cc1ccc(C)c2[nH]c(=O)c(CN(CCCN(C)C)C(=O)NCc3ccccc3)cc12 | -16.1
Cc1cc(NC(=O)c2cccs2)n(-c2ccccc2)n1 | 7.12
CC(C)c1nc2sc3c(NCc4ccccc4)ncnc3c2c2c1COC(C)(C)C2 | 19.3
CCn1cc(S(=O)(=O)CC(=O)Nc2cc(C)ccc2C)c2ccccc21 | 9.05
Cc1c(CCC(=O)NCC(=O)O)c(=O)oc2cc3occ(-c4ccccc4)c3cc12 | 13
CCc1ccc(N(C(=O)c2csnn2)C(C(=O)NC(C)(C)CC)c2cccnc2)cc1 (centres unmarked) | 1.95
CC(=O)Nc1ccc(NC(=O)Nc2cc(C)cc(C)c2)cc1 | 11.8
CSc1cccc2sc(NC(=O)C3=COCCO3)nc12 | 8.18
COc1ccccc1-n1ccnc1SCC(=O)NC(C)(C)C | 11.1
CCN1CCN(C(=O)c2oc(=O)c3ccccc3c2-c2ccc(C)cc2)CC1 | -1.55
Cc1ccc(O)c(N=Nc2nccs2)c1 | 12.5
NC(=NCCCCCCN=C(N)/N=C(\N)Nc1ccc(Cl)cc1)/N=C(\N)Nc1ccc(Cl)cc1 | -1.46
Cc1cccc(C)c1NC(=O)CNC(=O)c1ccc(N2CCCC2=O)cc1 | 6.04
CSc1nccc(Nc2ccccc2)c1C#N | 14.7
COc1ccc(CNc2ncnc3c2[nH]c2ccccc23)cc1 | 12.6
